No constants are given. Whether binding was seen depends on the method and setting. Some binding calls cover weakened binding; strength is not graded here. For part of these data: Tags and fused reporters may be left off the sequences shown.
B1: dCTCF–CTD 612–818 protein (domain or fragment, UniProt Q9VS55 612-818)
chain: SANAREKRRRLKLGRNVRLQKDGTVITLIKDQYVDMDRDQEENEEDDNPESYDLAEIEPENSEAEDADDDVETIVSDPIRQRIKPAPIIINKQARLAASEKQPMIINQRLRSQRGTKTFHIKEEPDNSDFTVEWQGDDGEVMVVELVNGDEEVLVKHEPSANSKISAKNCFGFEDDDDYEEYGDGENEVDGASQEFLQLMDMIEQDS
B2: dCTCF NTD 1–125 (domain or fragment, UniProt Q9VS55 1-125)
chain: MPRRTKKDEDPEDLQTFLNNFHKEIEGNSDEKVVNTILEAISAEAIDLDENGAEAGGSKPMEEAEADLDHAEEAEEEEEDDEDKYFIDDEGNCYIKTTPKKQKELQKKLKQAAAKPGKATRSVVS

Legend:
[1] = target: T1, GST–CP190 308–468 (Drosophila) (UniProt Q24478); experiment: pull-down; GST–CP190 fragments on glutathione agarose, recombinant dCTCF-CTD in solution; 2 h room temperature, buffer C; washes with 500 mM NaCl (Fig. 3f); both purified
T1 sequence: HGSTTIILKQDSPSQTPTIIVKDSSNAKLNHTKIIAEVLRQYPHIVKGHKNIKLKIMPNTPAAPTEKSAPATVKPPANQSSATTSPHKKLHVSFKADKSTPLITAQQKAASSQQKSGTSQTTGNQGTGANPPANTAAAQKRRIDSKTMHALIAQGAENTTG

[2] = target: T2, GST–CP190 308–517 (Drosophila) (UniProt Q24478); experiment: as above
T2 sequence: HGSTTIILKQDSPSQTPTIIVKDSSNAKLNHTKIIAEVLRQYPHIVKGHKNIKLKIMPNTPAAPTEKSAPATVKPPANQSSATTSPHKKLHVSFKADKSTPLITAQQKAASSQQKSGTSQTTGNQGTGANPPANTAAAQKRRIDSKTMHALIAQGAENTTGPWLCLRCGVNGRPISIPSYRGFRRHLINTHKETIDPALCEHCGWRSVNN

[3] = target: dCTCF NTD 1–125 (Drosophila melanogaster) (UniProt Q9VS55); experiment: cross-linking; one protein alone at 5 μM, increasing glutaraldehyde, 10 min at room temperature, 20 mM HEPES-KOH pH 7.7, 150 mM NaCl, 20 mM imidazole, 1 mM β-mercaptoethanol; SDS-PAGE, silver staining; both purified

| Binder | binding [1] | binding [2] | binding [3] |
| --- | --- | --- | --- |
| B1 | binds weakly | binds weakly |  |
| B2 |  |  | binds weakly |

Reference: PMC4528719, “Functional role of dimerization and CP190 interacting domains of CTCF protein in Drosophila melanogaster” (BMC Biology, 2015)
